Among all 77,000 compounds or so, about 4,600 (6%) were called active. The shares of active, inactive and inconclusive entries below differ from those in the screen.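 Rule for the calls: active = mean inhibition above about 93%, with at least 55% of replicates each passing it (limit read from the data, passing the limit was not always enough); inconclusive = only one of those two conditions holds; inactive = neither condition holds.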
Assay: T. cruzi intracellular proliferation inhibitors, primary screen, cell-based, beta-gal Tulahuen parasites, NIH3T3 host, luminescence (AID 624255)
Settings: T. cruzi beta-gal in NIH3T3, GalScreen luminescence, 90 h; at 8.34 µM; hits give high values
In the case of `COc1ccc(NC(=O)N2CCCCN3[C@H](CO)[C@@H](c4ccc(C#CCC(C)C)cc4)[C@@H]3C2)cc1`, the inhibition is reported as active: 105%. For `Cc1noc(C)c1S(=O)(=O)Nc1ccc2c(c1)CC(=O)N([C@@H](C)CO)C[C@@H](C)[C@@H](CN(C)S(=O)(=O)c1cn(C)cn1)O2`, the inhibition was inactive: -5.16%. For `C[C@@H]1CCCCO[C@H](CN(C)Cc2ccc(C(F)(F)F)cc2)[C@H](C)CN([C@H](C)CO)C(=O)c2cc(NC(=O)C3CCCCC3)ccc2O1`, the inhibition was inconclusive: 122%. For `C[C@@H]1CCCCO[C@@H](CN(C)C(=O)Nc2ccc(C(F)(F)F)cc2)[C@H](C)CN([C@H](C)CO)C(=O)c2cc(NC(=O)Cc3ccccc3)ccc2O1`, the inhibition was inconclusive: 123%. With `C[C@H](CO)N1C[C@H](C)[C@H](CN(C)C(=O)Cc2ccccc2)Oc2cc(C#Cc3ccccc3F)ccc2S1(=O)=O` the inhibition was active: 127%. In the case of `C[C@@H]1CN([C@@H](C)CO)C(=O)c2cccc(NC(=O)c3ccncc3)c2O[C@@H]1CN(C)Cc1ccc(C(=O)Nc2ccccc2N)cc1`, the inhibition is reported as inconclusive: 88.2%. With `C[C@H]1CN([C@@H](C)CO)S(=O)(=O)c2ccc(C#CCC3CCCC3)cc2O[C@H]1CN(C)C(=O)CC1CC1` the inhibition was active: 122%. For `C[C@H]1CN([C@@H](C)CO)C(=O)Cc2cc(NC(=O)Nc3ccc(C(F)(F)F)cc3)ccc2O[C@@H]1CN(C)C(=O)Nc1cccc2ccccc12`, the inhibition was inactive: 27%. With `C[C@@H]1CN([C@@H](C)CO)C(=O)c2cc(C#Cc3cccnc3)cnc2O[C@H]1CN(C)S(=O)(=O)c1ccccc1F` the inhibition was inactive: 50.8%. With `COc1ccccc1NC(=O)N1CCCCN2[C@@H](CO)[C@@H](c3ccc(-c4ccccc4)cc3)[C@@H]2C1` the inhibition was inconclusive: 98.7%. In the case of `COc1cccc(-c2ccc3n(c2=O)C[C@@H]2[C@@H](CO)[C@H](C(=O)NCC4CC4)N(C)[C@H]32)c1`, the inhibition is reported as inactive: 49.6%. With `CO[C@@H](CN(C)S(=O)(=O)c1ccc(F)cc1)[C@H](C)CN(C(=O)Nc1ccccc1F)[C@H](C)CO` the inhibition was inactive: 19.7%. For `C[C@H]1CN([C@@H](C)CO)C(=O)c2cc(NC(=O)Nc3ccc(C(F)(F)F)cc3)ccc2O[C@H]1CN(C)Cc1ccc(-c2ccccc2)cc1`, the inhibition was active: 118%. With `Cc1ccc(S(=O)(=O)N[C@@H]2CC[C@@H](CCNC(=O)Nc3ccc(Cl)cc3)O[C@H]2CO)cc1` the inhibition was inactive: 29.9%. In the case of `O=C(CC1CC1)N1CC[C@@H]2[C@@H](CO)Nc3ccc(-c4ccc(F)cc4)cc3[C@@H]21`, the inhibition is reported as inconclusive: 96.1%. With `CO[C@@H]1CN(C)C(=O)c2ccc(NC(=O)Cc3ccccc3)cc2OC[C@@H](C)N(C(=O)c2ccccc2F)C[C@@H]1C` the inhibition was inconclusive: 37.9%. With `CN1c2ccc(Br)cc2[C@H]2[C@H](CCN2S(=O)(=O)c2cccc(F)c2)[C@H]1CO` the inhibition was inconclusive: 97.1%. With `CCCNC(=O)C[C@H]1C[C@H]2c3cc(NC(=O)CC4CC4)ccc3O[C@H]2[C@@H](CO)O1` the inhibition was inactive: 2.64%. With `C[C@@H]1CCCCO[C@H](CN(C)C(=O)C2CCCCC2)[C@@H](C)CN([C@H](C)CO)C(=O)c2cc(NC(=O)Nc3cccc4ccccc34)ccc2O1` the inhibition was inconclusive: 95.9%. With `C[C@H](CO)N1C[C@H](C)[C@@H](CN(C)Cc2ccc(Cl)c(Cl)c2)Oc2ccc(NS(C)(=O)=O)cc2CC1=O` the inhibition was inconclusive: 95.5%. For `C[C@@H]1CCCCO[C@@H](CN(C)Cc2ccc(C(F)(F)F)cc2)[C@H](C)CN([C@H](C)CO)C(=O)c2cc(NC(=O)Nc3cccc4ccccc34)ccc2O1`, the inhibition was inconclusive: 121%. For `C[C@@H]1CCCCO[C@H](CN(C)Cc2ccccc2)[C@H](C)CN([C@@H](C)CO)C(=O)c2cc(NC(=O)NC3CCCCC3)ccc2O1`, the inhibition was inconclusive: 74.3%. In the case of `C[C@H](CO)N1C[C@H](C)[C@@H](CN(C)C)OCc2ccccc2-c2c(n(C)c3ccccc23)C1=O`, the inhibition is reported as inconclusive: 99.4%. In the case of `CC(C)C#Cc1ccc([C@H]2[C@H](CO)N3CCCCN(S(=O)(=O)Cc4ccccc4)C[C@@H]23)cc1`, the inhibition is reported as active: 109%. With `C[C@@H]1CN([C@@H](C)CO)S(=O)(=O)c2ccc(-c3ccc(F)cc3)cc2O[C@@H]1CN(C)C(=O)Nc1ccc(F)cc1` the inhibition was active: 123%. In the case of `COc1ccccc1-c1ccc2c(c1)[C@@H]1[C@@H](CCN1C(=O)C1CC1)[C@H](CO)N2`, the inhibition is reported as inconclusive: 96.5%. For `C[C@H](CO)N1C[C@H](C)[C@H](CN(C)C(=O)C2CC2)OCc2ccccc2-c2c(n(C)c3ccccc23)C1=O`, the inhibition was inconclusive: 100%. For `C[C@@H]1CCCCO[C@@H](CN(C)Cc2ccc3c(c2)OCO3)[C@H](C)CN([C@H](C)CO)C(=O)c2cc(NC(=O)Nc3ccccc3)ccc2O1`, the inhibition was inconclusive: 102%. In the case of `COc1ccc(CN(C)C[C@@H]2OCCCC[C@@H](C)Oc3ccc(NS(=O)(=O)c4ccc(Cl)cc4)cc3C(=O)N([C@@H](C)CO)C[C@@H]2C)cc1`, the inhibition is reported as inconclusive: 96.8%. For `CC(C)CC#Cc1cnc2c(c1)C(=O)N([C@@H](C)CO)C[C@@H](C)[C@@H](CN(C)C(=O)Nc1cc(F)ccc1F)O2`, the inhibition was inconclusive: 115%. In the case of `Cc1ccc(S(=O)(=O)N(C)C[C@@H]2Oc3c(NC(=O)C4CCCCC4)cccc3C(=O)N([C@H](C)CO)C[C@@H]2C)cc1`, the inhibition is reported as inactive: -67.1%. For `COc1ccc(S(=O)(=O)Nc2ccc3c(c2)C(=O)N([C@H](C)CO)C[C@H](C)[C@@H](CN(C)CC2CCCCC2)OCCCC[C@H](C)O3)cc1`, the inhibition was inconclusive: 115%. With `CN1c2ccc(Br)cc2[C@@H]2[C@@H](CCN2S(=O)(=O)c2cccc(F)c2)[C@H]1CO` the inhibition was inconclusive: 112%. For `C[C@@H]1CN([C@H](C)CO)C(=O)c2cccc(NC(=O)Nc3ccc(F)cc3)c2O[C@@H]1CN(C)Cc1ccc(-c2ccccc2)cc1`, the inhibition was inconclusive: 121%. For `C[C@H](CO)N1C[C@H](C)[C@H](CN(C)C(=O)CC2CC2)Oc2cc(C#CCC3CCCC3)ccc2S1(=O)=O`, the inhibition was active: 121%. With `CN1c2ccc(-c3ccccc3F)cc2[C@H]2[C@H](CCN2C(=O)Nc2ccc(F)cc2)[C@H]1CO` the inhibition was inconclusive: 96.5%. With `CO[C@@H]1CN(C)C(=O)c2cc(NC(=O)Nc3ccccc3Cl)ccc2OC[C@@H](C)N(C)C[C@H]1C` the inhibition was inactive: -80.9%. In the case of `CS(=O)(=O)N1CCCCN2[C@H](C1)[C@H](c1ccc(C3=CCCC3)cc1)[C@@H]2CO`, the inhibition is reported as inconclusive: 97.1%. With `CC(C)CC#Cc1ccc2c(c1)O[C@@H](CN(C)C(=O)C1CCCCC1)[C@@H](C)CN([C@@H](C)CO)S2(=O)=O` the inhibition was active: 113%. With `CN(C)C(=O)c1cccc(-c2ccc3c(c2)[C@H]2[C@H](CCN2C(=O)C2CCOCC2)[C@@H](CO)N3)c1` the inhibition was inconclusive: 98.1%. For `C[C@H](CO)N1C[C@H](C)[C@@H](CN(C)C(=O)c2ccccc2)Oc2ncc(C3=CCCCC3)cc2C1=O`, the inhibition was inactive: 28.4%. With `COc1ccc(-c2ccc3c(c2)[C@@H]2[C@@H](CCN2C(=O)c2ccncc2)[C@H](CO)N3C)cc1` the inhibition was inconclusive: 94.7%. With `C/C=C/c1ccc([C@@H]2[C@@H](C#N)N(c3ncc(CC)s3)[C@@H]2CO)cc1` the inhibition was inconclusive: 96.4%. With `C[C@H](CO)N1C[C@H](C)[C@@H](CN(C)S(=O)(=O)c2cccs2)OCCCC[C@H](C)Oc2ccc(NS(=O)(=O)c3ccc(Cl)cc3)cc2C1=O` the inhibition was inactive: 102%. In the case of `C[C@@H]1CCCCO[C@H](CN(C)Cc2ccncc2)[C@H](C)CN([C@H](C)CO)C(=O)c2cc(NC(=O)NC3CCCCC3)ccc2O1`, the inhibition is reported as inactive: 92.4%. With `COc1ccc(NC(=O)Nc2ccc3c(c2)C(=O)N([C@H](C)CO)C[C@H](C)[C@H](CN(C)C(=O)Nc2ccc4c(c2)OCO4)OCCCC[C@H](C)O3)cc1` the inhibition was inconclusive: 98.3%. In the case of `COCC(=O)N1CCCCN2[C@H](CO)[C@H](c3ccc(C#Cc4ccccc4)cc3)[C@@H]2C1`, the inhibition is reported as inconclusive: 96.6%. For `C[C@@H]1CN([C@H](C)CO)S(=O)(=O)c2ccc(-c3cncnc3)cc2O[C@H]1CN(C)Cc1ccccc1`, the inhibition was inconclusive: 105%. With `C[C@@H]1CN([C@@H](C)CO)C(=O)Cc2cc(NC(=O)Nc3cccc4ccccc34)ccc2O[C@H]1CN(C)Cc1ccc(Oc2ccccc2)cc1` the inhibition was inconclusive: 97%. With `C/C=C/c1ccc([C@H]2[C@@H](CO)N3CCCCN(S(=O)(=O)c4ccc(F)cc4)C[C@H]23)cc1` the inhibition was inconclusive: 106%. In the case of `C[C@@H]1CCCCO[C@H](CN(C)Cc2ccncc2)[C@H](C)CN([C@@H](C)CO)C(=O)c2cc(NC(=O)CCC(F)(F)F)ccc2O1`, the inhibition is reported as inactive: 65.8%. For `C[C@H](CO)N1C[C@H](C)[C@H](CN(C)C(=O)c2ccncc2)Oc2ncc(/C=C/c3ccccc3)cc2C1=O`, the inhibition was inactive: 48.7%. In the case of `C[C@H](CO)N1C[C@H](C)[C@@H](CN(C)C(=O)CN2CCOCC2)Oc2ncc(-c3cncnc3)cc2C1=O`, the inhibition is reported as inconclusive: 95.7%. In the case of `C[C@H]1CN([C@@H](C)CO)S(=O)(=O)c2ccc(-c3ccc(C(=O)N(C)C)cc3)cc2O[C@@H]1CN(C)C(=O)C1CCC1`, the inhibition is reported as inactive: -4.12%. For `O=C(C1CCOCC1)N1CC[C@@H]2[C@H](CO)Nc3ccc(-c4ccc(F)cc4)cc3[C@@H]21`, the inhibition was inconclusive: 96.2%. With `C[C@@H]1CCCCO[C@H](CN(C)C(=O)C2CCCCC2)[C@H](C)CN([C@@H](C)CO)C(=O)c2cc(NC(=O)Nc3cccc4ccccc34)ccc2O1` the inhibition was inconclusive: 119%. In the case of `CCC(=O)NC[C@H]1[C@H](c2ccc(C3=CCCC3)cc2)[C@H](CO)N1C(C)=O`, the inhibition is reported as inactive: 23.2%.

Source: PubChem BioAssay AID624255 (Broad Institute, 2012)
